From the supplement of paper PMC8728848
The other results are listed elsewhere or left out.

Key:
Assay in all cases: glycan array binding signal (z-score within array); higher = stronger binding
Conditions in all cases: glycan notation: IUPAC condensed, linker removed
Fuc(a1-2)Gal = target: Fuc(a1-2)Gal
In short: (§1)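 Columns mapping to the same glycan were averaged after glycan names were converted to IUPAC-condensed notation. The data come from 3228 arrays in the Consortium for Functional Glycomics database, limited to those with an available protein sequence. Binding is reported as a within-array Z-score averaged across arrays of one protein sequence and across linkers.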

Fuc(a1-2)Gal(b1-3)GalNAc = target: Fuc(a1-2)Gal(b1-3)GalNAc
In short: as §1

[1] = target: Fuc(a1-2)Gal(b1-3)GalNAc(a1-3)[Fuc(a1-2)]Gal(b1-4)Glc
In short: as §1

[2] = target: Fuc(a1-2)Gal(b1-3)GalNAc(a1-3)[Fuc(a1-2)]Gal(b1-4)GlcNAc
In short: as §1

[3] = target: Fuc(a1-2)Gal(b1-3)GalNAc(b1-3)Gal
In short: as §1

[4] = target: Fuc(a1-2)Gal(b1-3)GalNAc(b1-3)Gal(a1-4)Gal(b1-4)Glc
In short: as §1

[5] = target: Fuc(a1-2)Gal(b1-3)GalNAc(b1-4)[Neu5Ac(a2-3)]Gal(b1-4)Glc
In short: as §1

Fuc(a1-2)Gal(b1-3)GlcNAc = target: Fuc(a1-2)Gal(b1-3)GlcNAc
In short: as §1

[6] = target: Fuc(a1-2)Gal(b1-3)GlcNAc(b1-2)Man(a1-3)[Fuc(a1-2)Gal(b1-3)GlcNAc(b1-2)Man(a1-6)]Man(b1-4)GlcNAc(b1-4)GlcNAc
In short: as §1

[7] = target: Fuc(a1-2)Gal(b1-3)GlcNAc(b1-2)Man(a1-3)[Fuc(a1-2)Gal(b1-3)GlcNAc(b1-2)Man(a1-6)]Man(b1-4)GlcNAc(b1-4)[Fuc(a1-6)]GlcNAc
In short: as §1

[8] = target: Fuc(a1-2)Gal(b1-3)GlcNAc(b1-3)Gal(b1-4)Glc
In short: as §1

[9] = target: Fuc(a1-2)Gal(b1-3)GlcNAc(b1-3)GalNAc
In short: as §1

[10] = target: Fuc(a1-2)Gal(b1-3)GlcNAc(b1-3)[Fuc(a1-2)Gal(b1-3)GlcNAc(b1-6)]GalNAc
In short: as §1

[11] = target: Fuc(a1-2)Gal(b1-3)GlcNAc(b1-3)[Gal(b1-4)GlcNAc(b1-6)]Gal(b1-4)Glc
In short: as §1

[12] = target: Fuc(a1-2)Gal(b1-3)GlcNAc(b1-3)[Neu5Ac(a2-6)Gal(b1-4)GlcNAc(b1-6)]Gal(b1-4)Glc
In short: as §1

[13] = target: Fuc(a1-2)Gal(b1-3)GlcNAc6S
In short: as §1

[14] = target: Fuc(a1-2)Gal(b1-3)[Fuc(a1-4)]GlcNAc
In short: as §1

[15] = target: Fuc(a1-2)Gal(b1-3)[Fuc(a1-4)]GlcNAc(b1-2)Man(a1-3)[Fuc(a1-2)Gal(b1-3)[Fuc(a1-4)]GlcNAc(b1-2)Man(a1-3)]Man(b1-4)GlcNAc(b1-4)GlcNAc
In short: as §1

[16] = target: Fuc(a1-2)Gal(b1-3)[Fuc(a1-4)]GlcNAc(b1-2)Man(a1-3)[Fuc(a1-2)Gal(b1-3)[Fuc(a1-4)]GlcNAc(b1-2)Man(a1-6)]Man(b1-4)GlcNAc(b1-4)[Fuc(a1-6)]GlcNAc(b1-4)[Fuc(a1-6)]GlcNAc
In short: as §1

[17] = target: Fuc(a1-2)Gal(b1-3)[Fuc(a1-4)]GlcNAc(b1-3)[Fuc(a1-3)[Gal(b1-4)]GlcNAc(b1-6)]Gal(b1-4)Glc
In short: as §1

[18] = target: Fuc(a1-2)Gal(b1-3)[Fuc(a1-4)]GlcNAc(b1-3)[Gal(b1-4)GlcNAc(b1-6)]Gal(b1-4)Glc
In short: as §1

[19] = target: Fuc(a1-2)Gal(b1-4)Fuc(a1-3)]GlcNAc(b1-2)Man(a1-3)[Fuc(a1-2)Gal(b1-4)[Fuc(a1-3)]GlcNAc(b1-2)Man(a1-6)]Man(b1-4)GlcNAc(b1-4)GlcNAc
In short: as §1

Fuc(a1-2)Gal(b1-4)Glc = target: Fuc(a1-2)Gal(b1-4)Glc
In short: as §1

Fuc(a1-2)Gal(b1-4)Glc6S = target: Fuc(a1-2)Gal(b1-4)Glc6S
In short: as §1

Fuc(a1-2)Gal(b1-4)GlcNAc = target: Fuc(a1-2)Gal(b1-4)GlcNAc
In short: as §1

[20] = target: Fuc(a1-2)Gal(b1-4)GlcNAc(b1-2)Man
In short: as §1

[21] = target: Fuc(a1-2)Gal(b1-4)GlcNAc(b1-2)Man(a1-3)[Fuc(a1-2)Gal(b1-4)GlcNAc(b1-2)Man(a1-6)]Man(b1-4)GlcNAc(b1-4)GlcNAc
In short: as §1

[22] = target: Fuc(a1-2)Gal(b1-4)GlcNAc(b1-2)Man(a1-3)[Fuc(a1-2)Gal(b1-4)GlcNAc(b1-2)Man(a1-6)]Man(b1-4)GlcNAc(b1-4)[Fuc(a1-6)]GlcNAc
In short: as §1

[23] = target: Fuc(a1-2)Gal(b1-4)GlcNAc(b1-2)[Fuc(a1-2)Gal(b1-4)GlcNAc(b1-4)]Man(a1-3)[Fuc(a1-2)Gal(b1-4)GlcNAc(b1-2)Man(a1-6)]Man(b1-4)GlcNAc(b1-4)GlcNAc
In short: as §1

[24] = target: Fuc(a1-2)Gal(b1-4)GlcNAc(b1-3)Gal(b1-4)GlcNAc
In short: as §1

[25] = target: Fuc(a1-2)Gal(b1-4)GlcNAc(b1-3)Gal(b1-4)GlcNAc(b1-2)Man(a1-3)[Fuc(a1-2)Gal(b1-4)GlcNAc(b1-3)Gal(b1-4)GlcNAc(b1-2)Man(a1-6)]Man(b1-4)GlcNAc(b1-4)GlcNAc
In short: as §1

[26] = target: Fuc(a1-2)Gal(b1-4)GlcNAc(b1-3)Gal(b1-4)GlcNAc(b1-3)Gal(b1-4)GlcNAc
In short: as §1

[27] = target: Fuc(a1-2)Gal(b1-4)GlcNAc(b1-3)GalNAc
In short: as §1

[28] = target: Fuc(a1-2)Gal(b1-4)GlcNAc(b1-3)[Fuc(a1-2)Gal(b1-4)GlcNAc(b1-6)]GalNAc
In short: as §1

[29] = target: Fuc(a1-2)Gal(b1-4)GlcNAc(b1-3)[Fuc(a1-3)[Gal(b1-4)]GlcNAc(b1-6)]Gal(b1-4)Glc
In short: as §1

[30] = target: Fuc(a1-2)Gal(b1-4)GlcNAc(b1-6)GalNAc
In short: as §1

[31] = target: Fuc(a1-2)Gal(b1-4)GlcNAc6S
In short: as §1

[32] = target: Fuc(a1-2)Gal(b1-4)[Fuc(a1-3)]GlcNAc
In short: as §1

[33] = target: Fuc(a1-2)Gal(b1-4)[Fuc(a1-3)]GlcNAc(b1-2)Man(a1-3)[Fuc(a1-2)Gal(b1-4)[Fuc(a1-3)]GlcNAc(b1-2)Man(a1-6)]Man(b1-4)GlcNAc(b1-4)[Fuc(a1-6)]GlcNAc
In short: as §1

[34] = target: Fuc(a1-2)Gal(b1-4)[Fuc(a1-3)]GlcNAc(b1-2)[Fuc(a1-2)Gal(b1-4)[Fuc(a1-3)]GlcNAc(b1-4)]Man(a1-3)[Fuc(a1-2)Gal(b1-4)[Fuc(a1-3)]GlcNAc(b1-2)Man(a1-6)]Man(b1-4)GlcNAc(b1-4)GlcNAc
In short: as §1

[35] = target: Fuc(a1-2)Gal(b1-4)[Fuc(a1-3)]GlcNAc(b1-3)Gal(b1-4)[Fuc(a1-3)]GlcNAc
In short: as §1

[36] = target: Fuc(a1-2)Gal(b1-4)[Fuc(a1-3)]GlcNAc(b1-3)Gal(b1-4)[Fuc(a1-3)]GlcNAc(b1-3)Gal(b1-4)[Fuc(a1-3)]GlcNAc
In short: as §1

[37] = target: Fuc(a1-2)Gal(b1-4)[Fuc(a1-3)]GlcNAc(b1-3)GalNAc
In short: as §1

[38] = target: Fuc(a1-2)Gal(b1-4)[Fuc(a1-3)]GlcNAc(b1-3)[Neu5Ac(a2-6)Gal(b1-4)GlcNAc(b1-6)]Gal(b1-4)Glc
In short: as §1

[39] = target: Fuc(a1-2)Gal3S(b1-4)GlcNAc
In short: as §1

B1: SSR2 (Sclerotium rolfsii) (protein)
chain: MVYKITVRVYQTNPDAFFHPVEKTVWKYANGGTWSITDDQHVLTMGGSGTSGTLRFHADNGESFTATFGVHNYKRWCDIVTNLAADETGMVINQQYYSQKNREEARERQLSNYQVKNAKGRNFQIVYTEAEGNDLHANLIIG
Fuc(a1-2)Gal
  glycan array binding signal (z-score): -0.279
Fuc(a1-2)Gal(b1-3)GalNAc
  glycan array binding signal (z-score): -0.275
[1]
  glycan array binding signal (z-score): -0.277
[2]
  glycan array binding signal (z-score): 0.154
[3]
  glycan array binding signal (z-score): -0.268
[4]
  glycan array binding signal (z-score): -0.298
[5]
  glycan array binding signal (z-score): -0.282
Fuc(a1-2)Gal(b1-3)GlcNAc
  glycan array binding signal (z-score): -0.284
[6]
  glycan array binding signal (z-score): -0.289
[7]
  glycan array binding signal (z-score): -0.278
[8]
  glycan array binding signal (z-score): -0.284
[9]
  glycan array binding signal (z-score): -0.294
[10]
  glycan array binding signal (z-score): -0.238
[11]
  glycan array binding signal (z-score): -0.267
[12]
  glycan array binding signal (z-score): -0.287
[13]
  glycan array binding signal (z-score): -0.238
[14]
  glycan array binding signal (z-score): -0.278
[15]
  glycan array binding signal (z-score): -0.272
[16]
  glycan array binding signal (z-score): -0.256
[17]
  glycan array binding signal (z-score): -0.287
[18]
  glycan array binding signal (z-score): -0.29
[19]
  glycan array binding signal (z-score): -0.214
Fuc(a1-2)Gal(b1-4)Glc
  glycan array binding signal (z-score): -0.321
Fuc(a1-2)Gal(b1-4)Glc6S
  glycan array binding signal (z-score): -0.292
Fuc(a1-2)Gal(b1-4)GlcNAc
  glycan array binding signal (z-score): -0.285
[20]
  glycan array binding signal (z-score): -0.282
[21]
  glycan array binding signal (z-score): -0.268
[22]
  glycan array binding signal (z-score): -0.269
[23]
  glycan array binding signal (z-score): -0.278
[24]
  glycan array binding signal (z-score): -0.258
[25]
  glycan array binding signal (z-score): -0.273
[26]
  glycan array binding signal (z-score): -0.277
[27]
  glycan array binding signal (z-score): -0.293
[28]
  glycan array binding signal (z-score): -0.282
[29]
  glycan array binding signal (z-score): -0.286
[30]
  glycan array binding signal (z-score): -0.288
[31]
  glycan array binding signal (z-score): -0.271
[32]
  glycan array binding signal (z-score): -0.282
[33]
  glycan array binding signal (z-score): -0.278
[34]
  glycan array binding signal (z-score): -0.242
[35]
  glycan array binding signal (z-score): -0.288
[36]
  glycan array binding signal (z-score): -0.294
[37]
  glycan array binding signal (z-score): -0.283
[38]
  glycan array binding signal (z-score): -0.282
[39]
  glycan array binding signal (z-score): -0.275
